# In the supplement of paper PMC8728848:
# Some of the results follow.
# B1: BTL (Bryothamnion triquetrum) (protein)
# chain: ADPICGSSGYSCTTPAILTPKSPGSFPSGYSKVIVTGVGGSYSVYIHRPDGFKVYKASEGGCASFGSYSGGGNSEVGKYGSGGTVVAVACK
# Assays:
# Experiment in all cases: glycan array binding signal (z-score within array); higher = stronger binding
# Settings in all cases: glycan notation: IUPAC condensed, linker removed
# [1] = target: Fuc(a1-2)Gal6S(b1-3)GlcNAc
# Outline: (§1)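 The binding signal is a Z-score computed within each array. Data were drawn from 3228 arrays in the Consortium for Functional Glycomics database, restricted to those with a known protein sequence. Scores were averaged over arrays of the same protein sequence at different concentrations or buffers, and over linkers, and negative values can be taken as non-binding.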
# [2] = target: Fuc(a1-2)Gal6S(b1-3)GlcNAc6S
# Outline: as §1
# Fuc(a1-2)Gal6S(b1-4)Glc = target: Fuc(a1-2)Gal6S(b1-4)Glc
# Outline: as §1
# [3] = target: Fuc(a1-2)Gal6S(b1-4)Glc6S
# Outline: as §1
# Fuc(a1-2)[Gal(a1-3)]Gal = target: Fuc(a1-2)[Gal(a1-3)]Gal
# Outline: as §1
# [4] = target: Fuc(a1-2)[Gal(a1-3)]Gal(b1-3)GalNAc
# Outline: as §1
# [5] = target: Fuc(a1-2)[Gal(a1-3)]Gal(b1-3)GalNAc(b1-3)Gal(a1-4)Gal(b1-4)Glc
# Outline: as §1
# [6] = target: Fuc(a1-2)[Gal(a1-3)]Gal(b1-3)GlcNAc
# Outline: as §1
# [7] = target: Fuc(a1-2)[Gal(a1-3)]Gal(b1-3)GlcNAc(b1-2)Man(a1-3)[Fuc(a1-2)[Gal(a1-3)]Gal(b1-3)GlcNAc(b1-2)Man(a1-6)]Man(b1-4)GlcNAc(b1-4)GlcNAc
# Outline: as §1
# [8] = target: Fuc(a1-2)[Gal(a1-3)]Gal(b1-3)GlcNAc(b1-2)Man(a1-3)[Fuc(a1-2)[Gal(a1-3)]Gal(b1-3)GlcNAc(b1-2)Man(a1-6)]Man(b1-4)GlcNAc(b1-4)[Fuc(a1-6)]GlcNAc
# Outline: as §1
# [9] = target: Fuc(a1-2)[Gal(a1-3)]Gal(b1-3)GlcNAc(b1-3)GalNAc
# Outline: as §1
# [10] = target: Fuc(a1-2)[Gal(a1-3)]Gal(b1-3)GlcNAc(b1-6)GalNAc
# Outline: as §1
# [11] = target: Fuc(a1-2)[Gal(a1-3)]Gal(b1-4)Glc
# Outline: as §1
# [12] = target: Fuc(a1-2)[Gal(a1-3)]Gal(b1-4)GlcNAc
# Outline: as §1
# [13] = target: Fuc(a1-2)[Gal(a1-3)]Gal(b1-4)GlcNAc(b1-2)Man
# Outline: as §1
# [14] = target: Fuc(a1-2)[Gal(a1-3)]Gal(b1-4)GlcNAc(b1-2)Man(a1-3)[Fuc(a1-2)[Gal(a1-3)]Gal(b1-4)GlcNAc(b1-2)Man(a1-6)]Man(b1-4)GlcNAc(b1-4)GlcNAc
# Outline: as §1
# [15] = target: Fuc(a1-2)[Gal(a1-3)]Gal(b1-4)GlcNAc(b1-2)Man(a1-3)[Fuc(a1-2)[Gal(a1-3)]Gal(b1-4)GlcNAc(b1-2)Man(a1-6)]Man(b1-4)GlcNAc(b1-4)[Fuc(a1-6)]GlcNAc
# Outline: as §1
# [16] = target: Fuc(a1-2)[Gal(a1-3)]Gal(b1-4)GlcNAc(b1-3)GalNAc
# Outline: as §1
# [17] = target: Fuc(a1-2)[Gal(a1-3)]Gal(b1-4)GlcNAc(b1-3)[Fuc(a1-2)[Gal(a1-3)]Gal(b1-4)GlcNAc(b1-6)]GalNAc
# Outline: as §1
# [18] = target: Fuc(a1-2)[Gal(a1-3)]Gal(b1-4)GlcNAc(b1-6)GalNAc
# Outline: as §1
# [19] = target: Fuc(a1-2)[Gal(a1-3)]Gal(b1-4)[Fuc(a1-3)]Glc
# Outline: as §1
# [20] = target: Fuc(a1-2)[Gal(a1-3)]Gal(b1-4)[Fuc(a1-3)]GlcNAc
# Outline: as §1
# [21] = target: Fuc(a1-2)[Gal(a1-3)]Gal(b1-4)[Fuc(a1-3)]GlcNAc(b1-3)GalNAc
# Outline: as §1
# [22] = target: Fuc(a1-2)[Gal(a1-4)]Gal(b1-4)GlcNAc
# Outline: as §1
# [23] = target: Fuc(a1-2)[GalNAc(a1-3)]Gal
# Outline: as §1
# [24] = target: Fuc(a1-2)[GalNAc(a1-3)]Gal(b1-3)GalNAc(a1-3)[Fuc(a1-2)]Gal(b1-4)GlcNAc
# Outline: as §1
# [25] = target: Fuc(a1-2)[GalNAc(a1-3)]Gal(b1-3)GalNAc(b1-3)Gal(a1-4)Gal(b1-4)Glc
# Outline: as §1
# [26] = target: Fuc(a1-2)[GalNAc(a1-3)]Gal(b1-3)GlcNAc
# Outline: as §1
# [27] = target: Fuc(a1-2)[GalNAc(a1-3)]Gal(b1-3)GlcNAc(b1-2)Man(a1-3)[Fuc(a1-2)[GalNAc(a1-3)]Gal(b1-3)GlcNAc(b1-2)Man(a1-6)]Man(b1-4)GlcNAc(b1-4)GlcNAc
# Outline: as §1
# [28] = target: Fuc(a1-2)[GalNAc(a1-3)]Gal(b1-3)GlcNAc(b1-2)Man(a1-3)[Fuc(a1-2)[GalNAc(a1-3)]Gal(b1-3)GlcNAc(b1-2)Man(a1-6)]Man(b1-4)GlcNAc(b1-4)[Fuc(a1-6)]GlcNAc
# Outline: as §1
# [29] = target: Fuc(a1-2)[GalNAc(a1-3)]Gal(b1-3)GlcNAc(b1-3)GalNAc
# Outline: as §1
# [30] = target: Fuc(a1-2)[GalNAc(a1-3)]Gal(b1-3)GlcNAc(b1-6)GalNAc
# Outline: as §1
# [31] = target: Fuc(a1-2)[GalNAc(a1-3)]Gal(b1-4)Glc
# Outline: as §1
# [32] = target: Fuc(a1-2)[GalNAc(a1-3)]Gal(b1-4)GlcNAc
# Outline: as §1
# [33] = target: Fuc(a1-2)[GalNAc(a1-3)]Gal(b1-4)GlcNAc(b1-2)Man
# Outline: as §1
# [34] = target: Fuc(a1-2)[GalNAc(a1-3)]Gal(b1-4)GlcNAc(b1-2)Man(a1-3)[Fuc(a1-2)[GalNAc(a1-3)]Gal(b1-4)GlcNAc(b1-2)Man(a1-6)]Man(b1-4)GlcNAc(b1-4)GlcNAc
# Outline: as §1
# [35] = target: Fuc(a1-2)[GalNAc(a1-3)]Gal(b1-4)GlcNAc(b1-2)Man(a1-3)[Fuc(a1-2)[GalNAc(a1-3)]Gal(b1-4)GlcNAc(b1-2)Man(a1-6)]Man(b1-4)GlcNAc(b1-4)[Fuc(a1-6)]GlcNAc
# Outline: as §1
# [36] = target: Fuc(a1-2)[GalNAc(a1-3)]Gal(b1-4)GlcNAc(b1-3)Gal(b1-4)GlcNAc
# Outline: as §1
# [37] = target: Fuc(a1-2)[GalNAc(a1-3)]Gal(b1-4)GlcNAc(b1-3)Gal(b1-4)GlcNAc(b1-3)Gal(b1-4)GlcNAc
# Outline: as §1
# [38] = target: Fuc(a1-2)[GalNAc(a1-3)]Gal(b1-4)GlcNAc(b1-3)GalNAc
# Outline: as §1
# [39] = target: Fuc(a1-2)[GalNAc(a1-3)]Gal(b1-4)GlcNAc(b1-3)[Fuc(a1-2)[GalNAc(a1-3)]Gal(b1-4)GlcNAc(b1-6)]GalNAc
# Outline: as §1
# [40] = target: Fuc(a1-2)[GalNAc(a1-3)]Gal(b1-4)GlcNAc(b1-6)GalNAc
# Outline: as §1
# [41] = target: Fuc(a1-2)[GalNAc(a1-3)]Gal(b1-4)[Fuc(a1-3)]GlcNAc
# Outline: as §1
# [42] = target: Fuc(a1-2)[GalNAc(a1-3)]Gal(b1-4)[Fuc(a1-3)]GlcNAc(b1-3)GalNAc
# Outline: as §1
# [43] = target: Fuc(a1-2)[GalNAc(a1-4)]Gal(b1-4)GlcNAc
# Outline: as §1
binder,measurement,setting,value
B1,glycan array binding signal (z-score),[1],-0.27
same,glycan array binding signal (z-score),[2],-0.157
same,glycan array binding signal (z-score),Fuc(a1-2)Gal6S(b1-4)Glc,-0.244
same,glycan array binding signal (z-score),[3],-0.275
same,glycan array binding signal (z-score),Fuc(a1-2)[Gal(a1-3)]Gal,-0.215
same,glycan array binding signal (z-score),[4],-0.203
same,glycan array binding signal (z-score),[5],-0.231
same,glycan array binding signal (z-score),[6],-0.304
same,glycan array binding signal (z-score),[7],0.023
same,glycan array binding signal (z-score),[8],3.03
same,glycan array binding signal (z-score),[9],-0.188
same,glycan array binding signal (z-score),[10],-0.206
same,glycan array binding signal (z-score),[11],-0.15
same,glycan array binding signal (z-score),[12],-0.215
same,glycan array binding signal (z-score),[13],-0.25
same,glycan array binding signal (z-score),[14],-0.041
same,glycan array binding signal (z-score),[15],2.46
same,glycan array binding signal (z-score),[16],-0.174
same,glycan array binding signal (z-score),[17],-0.119
same,glycan array binding signal (z-score),[18],-0.041
same,glycan array binding signal (z-score),[19],-0.286
same,glycan array binding signal (z-score),[20],-0.234
same,glycan array binding signal (z-score),[21],-0.188
same,glycan array binding signal (z-score),[22],-0.252
same,glycan array binding signal (z-score),[23],-0.262
same,glycan array binding signal (z-score),[24],-0.242
same,glycan array binding signal (z-score),[25],-0.149
same,glycan array binding signal (z-score),[26],-0.232
same,glycan array binding signal (z-score),[27],-0.139
same,glycan array binding signal (z-score),[28],2.05
same,glycan array binding signal (z-score),[29],-0.18
same,glycan array binding signal (z-score),[30],-0.277
same,glycan array binding signal (z-score),[31],-0.217
same,glycan array binding signal (z-score),[32],-0.268
same,glycan array binding signal (z-score),[33],-0.23
same,glycan array binding signal (z-score),[34],-0.094
same,glycan array binding signal (z-score),[35],1.3
same,glycan array binding signal (z-score),[36],-0.228
same,glycan array binding signal (z-score),[37],-0.221
same,glycan array binding signal (z-score),[38],-0.306
same,glycan array binding signal (z-score),[39],-0.234
same,glycan array binding signal (z-score),[40],-0.281
same,glycan array binding signal (z-score),[41],-0.244
same,glycan array binding signal (z-score),[42],-0.17
same,glycan array binding signal (z-score),[43],-0.202
